Screen size: about 48,000 compounds; about 120 (0.25%) were called active. About 4% were inconclusive and are not listed. Calls follow the shape of the dose curve; as a rule, active = well fitted activation curve with a large enough effect; inconclusive = small, poorly fitted or top-dose-only effect, or another doubt; inactive = no such curve, though single readings can be large or run the other way. Some of the results follow.
Assay: Primary qHTS for Identification of Small Molecule Activators of Huntingtin-Antisense Promoter Activity; also: nearly all actives have a fitted effect of over 55% in size
Details: HEK293 HTT-AS promoter firefly luciferase reporter (activity 0% = vehicle and -100% = no light), 24 h; series mostly up to 57.5 µM; activity change, positive = activation: at the top concentration
Method in brief: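 Firefly luciferase readout (Dual-Glo, 10 min RT) after 24 h, 37 °C compound exposure (final up to 57.5 uM) of HEK293 reporter cells cultured 24 h beforehand; PTC124 at 50 uM final as control inhibitor; activity scaled vehicle 0%, zero RLU -100%.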

Activity change, positive = activation, inactive:
CCOc1ccccc1NC(=O)C1CCN(S(=O)(=O)c2cccc3nonc23)CC1 -9.11%, O=c1ccc2ccc(O)c(O)c2o1 -92.8%, Cc1cccc(N2CCN(C(=O)C3CCCN(C(=O)c4cc5sccc5n4C)C3)CC2)c1C (stereo unspecified) -22.4%, COc1ccc(N2CCN(c3ncnc4onc(C)c34)CC2)cc1 -79.4%, N#CC(c1ccc(Cl)cc1)c1c(Cl)cc(-n2ncc(=O)[nH]c2=O)cc1Cl (stereo unspecified) -20.9%, CC1=C(C(=O)Nc2ccc(F)cc2)C(c2ccc(N(C)C)cc2)NC(=O)N1 (stereo unspecified) 10.1%, CCOc1ccc(CCNC(=O)Cn2ccc3cc(S(=O)(=O)N4CCCCCC4)ccc32)cc1 -35.5%, CCC1CN(C(=O)C2CCN(S(=O)(=O)c3c(C)noc3/C=C/c3ccc(C)cc3)CC2)c2cc(C)ccc2O1 (stereo unspecified) 13.8%, COc1ccc(NC(=O)C(=O)c2cc(C)n(-c3ccc(C)cc3)c2C)cc1Cl -6.46%, COCCNC(=O)CCn1c(=O)[nH]c2cc(OC)c(OC)cc2c1=O 1.62%, COc1ccc(NC(=O)CSc2nnc(-c3nonc3NC(C)=O)n2C)cc1Cl -27%, O=c1cc2nc(-c3ccccc3F)nc(SCc3ccc(Br)cc3)n2[nH]1 -8.41%, CCOC(=O)c1c(C)[nH]c(C)c1S(=O)(=O)N1CCCC(C(=O)Nc2ccc(OC)c(OC)c2)C1 (stereo unspecified) 17.7%, Cc1cccc(Cn2c(SCc3ccc(C(=O)NCc4cccs4)cc3)nc3cccnc32)c1 -33.9%, Cc1ccccc1-n1c2nc(=O)[nH]c(=O)c-2cc2c(Cl)cccc21 13.3%, Cc1c(Cl)cccc1NC(=O)CCn1cnnn1 -7%, CCN(CC)CCCNC(=O)C(C)n1nc(C)n2c(cc3occc32)c1=O (stereo unspecified) -13.4%, COC(=O)c1cc(C)nc2c1c(=O)nc(SCc1cccc(C(F)(F)F)c1)n2C1CC1 0.969%, COc1ccc(Cl)cc1NC(=O)COC(=O)CC(C)(C)CC1=NS(=O)(=O)c2ccccc2N1 -40.7%, COCCCN1C(=O)c2[nH]nc(-c3ccccc3O)c2C1c1ccc(OC)cc1 (stereo unspecified) -38.5%, O=C(C1CCC(CNS(=O)(=O)c2cccs2)CC1)N1CCN(c2ccc(Cl)cc2)CC1 (stereo unspecified) -75.5%, COc1ccc(CCNC(=O)Cn2c(=O)nc(-c3ccccc3F)c3cc(Cl)ccc32)cc1OC 29.9%, COC(=O)c1ccccc1NC(=O)CN(c1ccc(Cl)cc1)S(=O)(=O)c1ccc(OC)cc1 -12.4%, Cc1ccc2[nH]c(CSc3nnc(C)s3)cc(=O)c2c1 -3.66%, COc1ccc(CNC(=O)C2CCN(c3nnc(C)c4c(C)n(-c5ccc(C)cc5)nc34)CC2)cc1 -25%, CC(C)(C)C(=O)OCOP(=O)(COCCn1cnc2c(N)ncnc21)OCOC(=O)C(C)(C)C, CCc1ccc(NC(=O)c2sc3nc(C)cc(C)c3c2NC(=O)c2ccccc2)cc1 9.54%, COc1cccc(CNC(=O)Nc2ccc3c(c2)N(C)C(=O)c2ccccc2S3)c1 -49.6%, Cc1ccc(-c2nn3c(C)nnc3c3ccccc23)cc1S(=O)(=O)NC(C)(C)CO -5.83%, Cc1ccccc1NC(=O)C1CCN(S(=O)(=O)c2cccc3nonc23)CC1 -22.2%, O=C(Nc1nnc2n1CCS2)c1cc(C(F)(F)F)cc(C(F)(F)F)c1 -7.43%, CCOc1ccc(N(C)S(=O)(=O)c2cc(-c3cnc(C)o3)ccc2OC)cc1 -33.5%, CN(C)S(=O)(=O)c1ccc2c(c1)N(CC(=O)N1CCC(C(N)=O)CC1)CCS2 -4.91%, CC1CCCN(c2ncnc3c2nnn3C)C1 (stereo unspecified) 27.5%, CCCOC(=O)c1cccc(Nc2nc(C(=O)OCC)nc3ccccc23)c1 -50.7%, O=C(Nc1ccc(C(F)(F)F)cc1)C1(c2cccs2)CCOCC1 -17.6%, CCC1CN(C(=O)N2CCC(C(=O)NCc3ccccc3F)CC2)c2ccccc2O1 (stereo unspecified) -23%, CCOc1ccc(NC(=O)c2cc(S(=O)(=O)N3CCC(C)CC3)cn2C)cc1 -14.4%, COc1ccc(CNC(=O)Cc2ccc(NC(=O)N3CCCCc4ccccc43)cc2)cc1 -17.6%, Cc1ccc(NC(=O)c2c(C)oc3ncnc(N4CCCCC4)c23)c(C)c1 -26.7%, CC(Oc1ccccc1F)C(=O)NCC1(N2CCOCC2)CCCCC1 (stereo unspecified) -20.6%, Cc1cc(C)cc(NC(=O)c2cc(S(=O)(=O)N3CCCCC3)c[nH]2)c1 -15.8%, CC(C)CN(CC(C)C)c1nnc(NC(=O)Nc2cccc(C(F)(F)F)c2)s1 -9.22%, COc1ccc(OCC(=O)Nc2ccc3c(c2)N(C)C(=O)c2ccccc2S3)cc1 -35.5%, CCOc1ccc(CNC(=O)c2ccc(Sc3ccc(C)cc3)c(N)c2)cc1OC -40.8%, COc1ccc(-c2cc(C(=O)Nc3c(C(=O)c4ccc(C)c(F)c4)oc4ccccc34)no2)cc1 17.9%, Cc1ccc2nc(Cl)c3cc(C(=O)N4CCCC(C)C4)sc3c2c1 (stereo unspecified) -14.4%, CCn1c(=O)c2cc(C(=O)NCCc3ccc(OC)c(OC)c3)sc2c2ccccc21 -41.8%, COC(=O)CSc1nnc(-c2cccc(O)c2)o1 -2.7%, COC(=O)Cn1c(SCCOc2ccccc2Cl)nc2ccccc21 -5.59%, O=C(CCS(=O)(=O)c1nc(-c2ccc3c(c2)OCO3)cc(C(F)(F)F)n1)Nc1ccccc1C(F)(F)F -25.9%, COc1ccc(C(C)=O)cc1CSc1nc(NCc2ccc(Cl)cc2)c2ccccc2n1 -6.88%, CCOC(=O)c1cc(-c2ccc(C)cc2)n(CC(=O)Nc2cc(C)ccc2C)c1C -1.32%, COc1ccc(-c2cc(C(F)(F)F)n3nc(C(=O)Nc4cccc(Cl)c4Cl)cc3n2)cc1OC -16%, CC1=C(C(=O)Nc2ccc(C)cc2C)C(c2cc(Br)ccc2F)n2ncc(C(=O)Nc3ccc(C)cc3)c2N1 (stereo unspecified) -20.4%, CCc1ccccc1NC(=O)c1cc(S(=O)(=O)N2CCC(C)CC2)cn1C -19.4%, CC(=O)Nc1sc2c(c1-c1nc3ccccc3s1)CNC2 -40.3%, COc1ccc(-c2cc(C(F)(F)F)n3nc(C(=O)Nc4ccc(Cl)cc4C(F)(F)F)cc3n2)cc1OC 6.37%, Cc1cccc(C)c1NC(=O)Cn1c(=O)n(CCC(=O)NCc2ccc3c(c2)OCO3)c(=O)c2sccc21 -13.5%, COc1ccc(C(=O)N2CCN(CCc3ccccn3)CC2)cc1 -9.54%, Cc1oc(-c2ccccc2)nc1Cn1c(=O)cc(-c2ccccc2)c2c(C)nn(C)c21 -19.3%

From PubChem BioAssay AID1508624 (National Center for Advancing Translational Sciences (NCATS), 2021)
